test system: MYC; assay: cells; conditions: Homo sapiens, MV4-11, 4 h, read-out: Myc IC50 (μM)

Compared with `CC(=O)N1CCc2c(c(N3CCc4cc(F)c(-c5cnn(C)c5)cc43)nn2C2CCOC2)C1` (stereo not shown) [Example 210, 1-[3-[5-fluoro-6-(1-methylpyrazol-4-yl)indolin-1-yl]-1-tetrahydrofuran-3-yl-6,7-dihydro-4H-pyrazolo[4,3-c]pyridin-5-yl]ethanone], `CC(=O)N1CCc2c(c(N3CCCc4cc(-c5cnn(C)c5)c(C)cc43)nn2[C@H]2CCOC2)C1` [Example 134, 1-[3-[7-methyl-6-(1-methylpyrazol-4-yl)-3,4-dihydro-2H-quinolin-1-yl]-1-[(3S)-tetrahydrofuran-3-yl]-6,7-dihydro-4H-pyrazolo[4,3-c]pyridin-5-yl]ethanone] is 1.7-fold higher in IC50: 0.564 µM for the first, 0.957 µM for the second. The first is the more potent here.

Going from `CC(=O)N1CCc2c(c(N3CC(C)Cc4cc(-c5cnn(C)c5)c(C#N)cc43)nn2[C@H]2CCOC2)C1` (stereo partly drawn) [Example 84, 1-(5-acetyl-1-((S)-tetrahydrofuran-3-yl)-6,7-dihydro-4H-pyrazolo[4,3-c]pyridin-3-yl)-3-methyl-6-(1-methylpyrazol-4-yl)-3,4-dihydro-2H-quinoline-7-carbonitrile] to `CC(=O)N1CCc2c(c(N3CCCc4cc(-c5cnn(C)c5)c(C#N)cc43)nn2C2COC2)C1` [Example 127, 1-[5-acetyl-1-(oxetan-3-yl)-6,7-dihydro-4H-pyrazolo[4,3-c]pyridin-3-yl]-6-(1-methylpyrazol-4-yl)-3,4-dihydro-2H-quinoline-7-carbonitrile], the IC50 rises from 0.088 µM to 0.693 µM (7.9-fold).

First: CC(=O)N1CCc2c(c(N3CCc4cc(-c5cnn(C)c5C)ccc43)nn2[C@@H]2CCOC2)C1 [Example 185, (R)-1-[3-[5-(1,5-dimethylpyrazol-4-yl)indolin-1-yl]-1-tetrahydrofuran-3-yl-6,7-dihydro-4H-pyrazolo[4,3-c]pyridin-5-yl]ethanone]
Second: COCC1Cc2cc(-c3cnn(C)c3)ccc2N(c2nn([C@H]3CCOC3)c3c2CN(C(C)=O)CC3)C1 (stereo in doubt) [Example 92, 1-[3-[3-(methoxymethyl)-6-(1-methylpyrazol-4-yl)-3,4-dihydro-2H-quinolin-1-yl]-1-tetrahydrofuran-3-yl-6,7-dihydro-4H-pyrazolo[4,3-c]pyridin-5-yl]ethanone]
The IC50 of the first is 1.7-fold lower: 0.565 µM for the first, 0.937 µM for the second.

Compared with `CC(=O)N1CCc2c(c(N3CCCc4cc(-c5cnn(C)c5)c(C(F)F)cc43)nn2C2CCC(F)(F)CC2)C1` [Example 348, 1-[1-(4,4-difluorocyclohexyl)-3-[7-(difluoromethyl)-6-(1-methylpyrazol-4-yl)-3,4-dihydro-2H-quinolin-1-yl]-6,7-dihydro-4H-pyrazolo[4,3-c]pyridin-5-yl]ethanone], `CC(=O)N1CCC(n2nc(N3CCCc4cc(-c5cnn(C)c5)c(C(F)F)cc43)c3c2CCN(C(C)=O)C3)CC1` [Example 327, 1-[4-[5-acetyl-3-[7-(difluoromethyl)-6-(1-methylpyrazol-4-yl)-3,4-dihydro-2H-quinolin-1-yl]-6,7-dihydro-4H-pyrazolo[4,3-c]pyridin-1-yl]-1-piperidyl]ethanone] is 3.2-fold lower in IC50: 0.019 µM for the first, 0.006 µM for the second.

Going from `CC(=O)N1CCc2c(c(Nc3cccc(-c4cnn(C)c4)c3F)nn2CC(F)(F)F)C1` [Example 58, 1-(3-((2-fluoro-3-(1-methyl-1H-pyrazol-4-yl)phenyl)amino)-1-(2,2,2-trifluoroethyl)-6,7-dihydro-1H-pyrazolo[4,3-c]pyridin-5(4H)-yl)ethanone] to `CC(=O)N1CCc2c(c(Nc3cccc(-c4cnn(C)c4)c3)nn2CCC(F)(F)F)C1` [Example 84, 1-(5-acetyl-1-((S)-tetrahydrofuran-3-yl)-6,7-dihydro-4H-pyrazolo[4,3-c]pyridin-3-yl)-3-methyl-6-(1-methylpyrazol-4-yl)-3,4-dihydro-2H-quinoline-7-carbonitrile], the IC50 falls from 0.7 µM to 0.39 µM (1.8-fold).

Going from `CNC(=O)N1CCc2c(c(N3CCCc4cc(-c5cnn(C)c5)c(C(F)F)cc43)nn2-c2ccncc2)C1` [Example 342, 3-[7-(difluoromethyl)-6-(1-methylpyrazol-4-yl)-3,4-dihydro-2H-quinolin-1-yl]-N-methyl-1-(4-pyridyl)-6,7-dihydro-4H-pyrazolo[4,3-c]pyridine-5-carboxamide] to `CNC(=O)N1CCc2c(c(N3CCCc4cc(-c5cnn(C)c5)c(C#N)cc43)nn2[C@H]2CCOC2)C1` [Example 158, 3-[7-cyano-6-(1-methylpyrazol-4-yl)-3,4-dihydro-2H-quinolin-1-yl]-N-methyl-1-[(3S)-tetrahydrofuran-3-yl]-6,7-dihydro-4H-pyrazolo[4,3-c]pyridine-5-carboxamide], the IC50 rises from 0.023 µM to 0.046 µM (2-fold).

`CNC(=O)N1CCc2c(c(N3C[C@H](C)Cc4cc(-c5cnn(C)c5)c(C(F)F)cc43)nn2C2CCOCC2)C1` [Example 250, (R)-3-[7-(difluoromethyl)-3-methyl-6-(1-methylpyrazol-4-yl)-3,4-dihydro-2H-quinolin-1-yl]-N-methyl-1-tetrahydropyran-4-yl-6,7-dihydro-4H-pyrazolo[4,3-c]pyridine-5-carboxamide] and `CNC(=O)N1CCc2c(c(N3CCCc4cc(-c5cnc(C)s5)c(C(F)F)cc43)nn2C2CCOCC2)C1` [Example 368, 3-[7-(difluoromethyl)-6-(2-methylthiazol-5-yl)-3,4-dihydro-2H-quinolin-1-yl]-N-methyl-1-tetrahydropyran-4-yl-6,7-dihydro-4H-pyrazolo[4,3-c]pyridine-5-carboxamide] are the same in IC50: 0.006 µM for the first, 0.006 µM for the second.

`CNC(=O)c1ccc(-c2cc3c(cc2C(F)(F)F)N(c2nn(C4CCOCC4)c4c2CN(C(C)=O)CC4)CCN3C)cn1` [Example 270, 5-[1-(5-acetyl-1-tetrahydropyran-4-yl-6,7-dihydro-4H-pyrazolo[4,3-c]pyridin-3-yl)-4-methyl-7-(trifluoromethyl)-2,3-dihydroquinoxalin-6-yl]-N-methyl-pyridine-2-carboxamide] and `CNC(=O)N1CCc2c(c(N3CCN(C)c4cc(-c5cnn(C)c5)c(C(F)(F)F)cc43)nn2C2CCN(C3COC3)CC2)C1` [Example 330, N-methyl-3-[4-methyl-6-(1-methylpyrazol-4-yl)-7-(trifluoromethyl)-2,3-dihydroquinoxalin-1-yl]-1-[1-(oxetan-3-yl)-4-piperidyl]-6,7-dihydro-4H-pyrazolo[4,3-c]pyridine-5-carboxamide] are within 1.5-fold of each other in IC50: 0.019 µM for the first, 0.015 µM for the second.

Going from `CC(=O)N1CCc2c(c(Nc3ccc(-c4cn[nH]c4)cc3F)nn2C2CCOC2)C1` (stereo not shown) [Example 248, 3-[7-(difluoromethyl)-4-methyl-6-(1-methylpyrazol-4-yl)-3,4-dihydro-2H-quinolin-1-yl]-N-methyl-1-tetrahydropyran-4-yl-6,7-dihydro-4H-pyrazolo[4,3-c]pyridine-5-carboxamide] to `CC(=O)N1CCc2c(c(N3CCC(CO)c4cc(-c5cnn(C)c5)ccc43)nn2C2CCOC2)C1` (stereo not shown) [Example 87, 1-[3-[4-(hydroxymethyl)-6-(1-methylpyrazol-4-yl)-3,4-dihydro-2H-quinolin-1-yl]-1-tetrahydrofuran-3-yl-6,7-dihydro-4H-pyrazolo[4,3-c]pyridin-5-yl]ethanone], the IC50 rises from 1.09 µM to 14.3 µM (13-fold).

Compared with `CC(=O)N1CCc2c(c(N3CCCc4cc(-c5ccc(C)nc5)ccc43)nn2C2COC2)C1` [Example 6, 1-[3-[6-(6-methyl-3-pyridyl)-3,4-dihydro-2H-quinolin-1-yl]-1-(oxetan-3-yl)-6,7-dihydro-4H-pyrazolo[4,3-c]pyridin-5-yl]ethanone], `COc1cc(-c2cc3c(cc2C(F)F)N(c2nn(C4CCOCC4)c4c2CN(C(C)=O)CC4)CCC3)ccn1` [Example 243, 1-[3-[7-(difluoromethyl)-6-(2-methoxy-4-pyridyl)-3,4-dihydro-2H-quinolin-1-yl]-1-tetrahydropyran-4-yl-6,7-dihydro-4H-pyrazolo[4,3-c]pyridin-5-yl]ethanone] is 23-fold lower in IC50: 0.375 µM for the first, 0.016 µM for the second.

Compared with `CNC(=O)N1CCc2c(c(N3CCCc4cc(-c5ccc(C#N)s5)c(C(F)F)cc43)nn2C2CCOCC2)C1` [Example 364, 3-[6-(5-cyano-2-thienyl)-7-(difluoromethyl)-3,4-dihydro-2H-quinolin-1-yl]-N-methyl-1-tetrahydropyran-4-yl-6,7-dihydro-4H-pyrazolo[4,3-c]pyridine-5-carboxamide], `CNC(=O)N1CCc2c(c(N3CCCc4cc(-c5cnc(C6CC6)s5)c(C(F)F)cc43)nn2C2CCOCC2)C1` [Example 361, 3-[6-(2-cyclopropylthiazol-5-yl)-7-(difluoromethyl)-3,4-dihydro-2H-quinolin-1-yl]-N-methyl-1-tetrahydropyran-4-yl-6,7-dihydro-4H-pyrazolo[4,3-c]pyridine-5-carboxamide] is 14-fold lower in IC50: 0.095 µM for the first, 0.007 µM for the second.

Compared with `CC(=O)N1CCc2c(c(N3CCc4ccc(-c5nn[nH]n5)cc43)nn2C)C1` [Example 204, 1-(3-(6-(2H-tetrazol-5-yl)indolin-1-yl)-1-methyl-6,7-dihydro-1H-pyrazolo[4,3-c]pyridin-5(4H)-yl)ethanone], `CC(=O)N1CCc2c(c(N3CCc4ccc(-c5cnn(C)c5)cc43)nn2CC2CC2)C1` [Example 170, 1-[1-(cyclopropylmethyl)-3-[6-(1-methylpyrazol-4-yl)indolin-1-yl]-6,7-dihydro-4H-pyrazolo[4,3-c]pyridin-5-yl]ethanone] is lower in IC50: over 20 µM for the first, 0.499 µM for the second.

Compared with `CCn1nc(Nc2cccc(C)c2)c2c1CCN(C(C)=O)C2` [Example 199, 1-[3-[3,3-dimethyl-5-(1-methylpyrazol-4-yl)indolin-1-yl]-1-methyl-6,7-dihydro-4H-pyrazolo[4,3-c]pyridin-5-yl]ethanone], `CC(=O)N1CCc2c(c(Nc3ccc(-c4cccc(F)c4)cc3)nn2C)C1` [Example 116, (S, R)-1-[3-[4-ethyl-6-(1-methylpyrazol-4-yl)-3,4-dihydro-2H-quinolin-1-yl]-1-tetrahydrofuran-3-yl-6,7-dihydro-4H-pyrazolo[4,3-c]pyridin-5-yl]ethanone] is 2.7-fold lower in IC50: 2.89 µM for the first, 1.08 µM for the second. The second is the more potent here.

`CC(=O)N1CCc2c(c(N3CCc4cc(-c5cnn(C)c5)c(F)cc43)nn2C)C1` [Example 191, 1-[3-[6-fluoro-5-(1-methylpyrazol-4-yl)indolin-1-yl]-1-methyl-6,7-dihydro-4H-pyrazolo[4,3-c]pyridin-5-yl]ethanone] and `CC(=O)N1CCc2c(c(N3CCc4cc(-c5cnn(C)c5)cc(F)c43)nn2C)C1` [Example 217, 1-[3-[7-fluoro-5-(1-methylpyrazol-4-yl)indolin-1-yl]-1-methyl-6,7-dihydro-4H-pyrazolo[4,3-c]pyridin-5-yl]ethanone] are within 1.5-fold of each other in IC50: 0.329 µM for the first, 0.395 µM for the second.

From patent US9763922B2 (priority 2014, dated 2017)
